Target: T1, human 5T4 antigen (Homo sapiens, UniProt Q13641)
T1 sequence (Q13641 32-420): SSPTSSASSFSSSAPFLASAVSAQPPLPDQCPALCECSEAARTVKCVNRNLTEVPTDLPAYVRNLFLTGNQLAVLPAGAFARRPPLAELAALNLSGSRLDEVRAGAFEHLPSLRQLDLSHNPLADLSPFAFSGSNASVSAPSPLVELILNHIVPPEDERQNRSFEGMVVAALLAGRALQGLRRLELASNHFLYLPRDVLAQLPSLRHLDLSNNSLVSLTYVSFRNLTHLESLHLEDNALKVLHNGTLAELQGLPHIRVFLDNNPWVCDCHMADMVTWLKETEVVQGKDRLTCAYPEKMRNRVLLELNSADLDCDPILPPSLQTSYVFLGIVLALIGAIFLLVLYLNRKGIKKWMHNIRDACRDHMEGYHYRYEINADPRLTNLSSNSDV
Assay: BIACORE analysis (surface plasmon resonance), 5T4 immobilized on CM5 chip
Assay type: binding
Method: To assess the binding specificity and affinity of chimeric and humanized H8 antibodies, BIACORE® analysis was performed using human 5T4 antigen immobilized on a CM5 chip. BIACORE® technology utilizes changes in the refractive index at the surface layer upon binding of the antibody to the 5T4 antigen immobilized on the layer. Binding is detected by surface plasmon resonance (SPR) of laser light refracting from the surface. Analysis of the signal kinetics on rate and off rate allows the discrimination between non-specific and specific interaction. The concentration of antibody used was in the range of 12.5 nM to 200 nM. Chimeric, semi-humanized, and humanized H8 antibodies performed similarly to the murine H8 antibody in the BIACORE® assay.
The binding kinetics of murine H8, humanized H8, and humanized H8 calicheamicin conjugate were compared by plasmon resonance, essentially as described in Example 2. The conjugate sample contained 61 μg CalichDMH per mg protein, 1% free antibody, and 1.4% aggregate.

B1: Humanized H8 version 1: humanized H8 heavy chain variable region version 1 and light chain variable region version 1 (antibody)
heavy: QVQLVQSGAEVKKPGASVKVSCKASGYSFTGYYMHWVKQSPGQGLEWIGRINPNNGVTLYNQKFKDRVTMTRDTSISTAYMELSRLRSDDTAVYYCARSTMITNYVMDYWGQGTLVTVSSASTKGPSVFPLAPCSRSTSESTAALGCLVKDYFPEPVTVSWNSGALTSGVHTFPAVLQSSGLYSLSSVVTVPSSSLGTKTYTCNVDHKPSNTKVDKRV[human IgG4 Fc with S228P (EU numbers) not written out]
light: DIVMTQSPDSLAVSLGERATINCKASQSVSNDVAWYQQKPGQSPKLLISYTSSRYAGVPDRFSGSGSGTDFTLTISSLQAEDVAVYFCQQDYNSPPTFGGGTKLEIKRTVAAPSVFIFPPSDEQLKSGTASVVCLLNNFYPREAKVQWKVDNALQSGNSQESVTEQDSKDSTYSLSSTLTLSKADYEKHKVYACEVTHQGLSSPVTKSFNRGEC
- kd (Table 8, off rate): 7.8e-05 s⁻¹
- ka (Table 8, on rate): 90000 M⁻¹ s⁻¹
